Results reported in PMC4336329 (PLoS ONE, 2015).
Screen size: about 310,000 compounds; about 2,200 (0.71%) showed an effect of 50% or more. The effect is printed as a negative number. This is one part of the list.

The compounds below were run against human ether-à-go-go-related gene (hERG) potassium channel (human, UniProt Q12809) (assay: primary screen, population patch clamp on CHO cells stably expressing hERG).
Sequence of human ether-à-go-go-related gene (hERG) potassium channel (Q12809 whole entry, looked up): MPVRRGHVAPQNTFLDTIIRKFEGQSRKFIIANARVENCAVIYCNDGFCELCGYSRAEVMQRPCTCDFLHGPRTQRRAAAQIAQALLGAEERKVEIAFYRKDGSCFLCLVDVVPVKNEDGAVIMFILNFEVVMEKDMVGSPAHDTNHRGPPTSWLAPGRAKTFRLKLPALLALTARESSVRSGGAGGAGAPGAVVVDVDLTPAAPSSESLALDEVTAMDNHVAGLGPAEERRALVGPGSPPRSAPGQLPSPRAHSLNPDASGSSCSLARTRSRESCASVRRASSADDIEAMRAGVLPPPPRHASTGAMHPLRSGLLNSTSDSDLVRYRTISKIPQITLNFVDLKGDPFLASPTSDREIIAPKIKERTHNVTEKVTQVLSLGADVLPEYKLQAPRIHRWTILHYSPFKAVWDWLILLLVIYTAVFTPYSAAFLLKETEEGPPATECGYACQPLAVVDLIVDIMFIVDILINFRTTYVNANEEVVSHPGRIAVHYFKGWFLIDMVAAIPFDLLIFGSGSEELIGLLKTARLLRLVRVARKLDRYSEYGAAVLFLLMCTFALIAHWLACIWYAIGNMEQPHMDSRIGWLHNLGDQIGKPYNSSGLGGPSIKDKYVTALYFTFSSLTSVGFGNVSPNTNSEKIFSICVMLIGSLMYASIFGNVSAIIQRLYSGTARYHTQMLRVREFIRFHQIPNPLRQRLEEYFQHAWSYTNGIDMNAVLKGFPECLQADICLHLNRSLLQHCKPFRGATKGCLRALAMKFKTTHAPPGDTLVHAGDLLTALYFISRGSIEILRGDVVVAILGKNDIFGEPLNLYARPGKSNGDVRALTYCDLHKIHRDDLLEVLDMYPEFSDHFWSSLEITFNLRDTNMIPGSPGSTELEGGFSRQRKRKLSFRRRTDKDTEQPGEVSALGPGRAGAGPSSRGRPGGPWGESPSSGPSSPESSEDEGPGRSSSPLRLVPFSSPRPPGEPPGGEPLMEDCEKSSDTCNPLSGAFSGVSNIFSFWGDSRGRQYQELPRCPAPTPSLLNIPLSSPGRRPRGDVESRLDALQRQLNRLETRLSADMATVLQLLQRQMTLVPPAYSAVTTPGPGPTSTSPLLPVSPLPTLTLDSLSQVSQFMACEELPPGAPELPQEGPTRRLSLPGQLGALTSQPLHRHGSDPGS

| Compound | hERG current change (%, negative = inhibition) at 1uM |
| --- | --- |
| CCCCCC(=O)NC(=S)Nc1ccc(Br)cc1C | 11% |
| CCOCCCN(CC(=O)NC1CCCC1)C(=O)C(=O)Nc1ccc2c(c1)OCCO2 | 14.7% |
| CC1CCC(NC(=O)CCS(=O)(=O)c2ccc3c(c2)NC(=O)C(C)S3)CC1 (centres unmarked) | 7.54% |
| O=C(CN(Cc1ccc(F)cc1)C(=O)CNS(=O)(=O)c1ccc(Cl)cc1)NCC1CCCO1 (centres unmarked) | 4.06% |
| COC(=O)c1c(C)[nH]c(C(=O)OCc2ccc(F)cc2)c1C | 8.44% |
| CC(=O)Nc1ccc(S(=O)(=O)NC(CC(=O)NCCc2ccccc2)C(C)C)cc1 (centres unmarked) | 13.1% |
| COCCCNC(=O)Cn1cc(/C=C(\C#N)C(=O)NC2CCCC2)c2ccccc21 | 5.62% |
| COCC(=O)Oc1c(S(=O)(=O)c2ccc(C)cc2)c(C)nn1-c1ccccc1 | 9.13% |
| CCN1CCN(S(=O)(=O)c2cccc(S(=O)(=O)N3CCOCC3)c2)CC1 | 8.55% |
| CCn1c(COc2ccc(=O)n(-c3ccccc3)n2)nnc1SCC(=O)OC | 10.4% |
| CCC1(N(C(C)=O)c2ccc(OC)cc2)C(=O)c2ccccc2C1=O | 10.1% |
| O=[N+]([O-])c1ccc(CN2CCCCCC2)cc1 | -0.361% |
| CC(=O)N1CCC2(CC1)C(C#N)=C(N)Oc1c2sc2nc(C)cc(C)c12 | 2.24% |
| O=C(OCCCOC(=O)c1ccc([N+](=O)[O-])o1)c1ccc([N+](=O)[O-])o1 | 16.8% |
| Cc1cc(C(=O)NC(=S)Nc2ccccc2N2CCCC2)ccc1[N+](=O)[O-] | 4.82% |
| CC1(C)OC(=O)C=C[C@]2(C)[C@H]3CC[C@@]4(C)[C@H](C(=O)O)OC(=O)[C@H]5O[C@]54[C@]3(C)C(=O)C[C@@H]12 | 0.0752% |
| Cc1nn(-c2ccc(F)cc2)c(Cl)c1/C=N/NC(=O)c1ccc(O)cc1 | 15.8% |
| O=C(NCc1nc2ccccc2[nH]1)C1=C[C@@H](c2ccc(C(F)(F)F)cc2)C[C@@H](OCCCCO)O1 | 7.17% |
| Cc1ccc(-c2noc(C3CCCN(C(=O)c4ccc(C(C)(C)C)cc4)C3)n2)o1 (centres unmarked) | 9.62% |
| COC(=O)c1ccccc1NC(=O)c1nc(S(=O)(=O)Cc2ccccc2)ncc1Cl | 27.3% |
| CCCCN(CC)CCCNC(=O)CN1C(=O)CSc2ccc(S(=O)(=O)N3CCOCC3)cc21 | 2.31% |
| O=C(Nc1ccc(N=Nc2ccccc2)cc1)c1ccccc1Cl | 12.5% |

| Compound | hERG current change (%, negative = inhibition) at 1uM |
| --- | --- |
| O=C(Cn1nnc(-c2ccccc2)n1)N1CCN(S(=O)(=O)c2ccc(Cl)cc2)CC1 | 6.11% |
| COc1ccccc1/C=C/C=N/n1c(-c2ccc(Cl)cc2Cl)n[nH]c1=S | 21.3% |
| O=C(NCCCN1CCCC1=O)c1cc(-c2ccc3c(c2)OCO3)nc2ccccc12 | 7.65% |
| O=C1C2C3CCC(CC3)C2C(=O)N1c1ccccc1 (centres unmarked) | 18.5% |
| Fc1cc(F)cc(NC(=S)N2CCN(c3ncccn3)CC2)c1 | 2.87% |
| CCOc1ccc(S(=O)(=O)N(C)c2ccc(OCC(=O)NCC3CCCO3)cc2)cc1 (centres unmarked) | 3.38% |
| COc1ccc(OC)c(NC(=O)c2ccno2)c1 | -4.06% |
| CCNNC(=O)C(O)(c1cccc(C)c1)c1cccc(C)c1 | 13.2% |
| O=C(COC(=O)c1ccc(Cl)nc1)NCCC1=CCCCC1 | 13.1% |
| O=C(Nc1nccs1)c1cccc(S(=O)(=O)N2CCOCC2)c1 | 1.96% |
| COC(=O)CSc1nnc(-c2ccccn2)n1Cc1ccco1 | 3.57% |
| Cc1cc(C(F)(F)F)nc(CCNC(=O)C2CCC(=O)N(Cc3cccc(F)c3)C2)n1 (centres unmarked) | 16.4% |
| O=C(CN1C(=O)COc2ccc(Cl)cc21)Nc1ccccn1 | 10.1% |
| O=C1N=C(N2CCN(c3ccccc3)CC2)S/C1=C/c1ccco1 | -5.2% |
| COc1ccc(S(=O)(=O)N2CCCC2CNC(=O)C(=O)Nc2ccc(C)cc2)cc1 (centres unmarked) | -0.606% |
| Cc1ccncc1C(N)=O | 15% |
| Cc1ccc(C(=O)c2cn[nH]c2-c2cc(Cl)ccc2O)cc1 | 12.4% |
| CCOC(=O)c1c(C)[nH]c(C(=O)OCC(=O)NC(C)(C)C)c1C | 12.1% |
| Cc1ccc(S(=O)(=O)N(Cc2ccc(Cl)cc2)c2ccccc2C(=O)NCc2ccco2)cc1 | -8.28% |
| Cc1nc(C)c(C(=O)N/N=C/c2ccco2)s1 | 9.45% |
| COC(=O)C(F)(Sc1c(C)n(C)n(-c2ccccc2)c1=O)C(F)(F)F (centres unmarked) | 5.01% |
| Br.Clc1ccc2nc(CN3CCCCCC3)cn2c1 | -26.3% |
